# The supplement of paper PMC4967469
# IC50 is the fitted dose that halves viability relative to control wells, and lower means more sensitive; fits outside the tested doses are given as limits. AUC is the area under the same curve over the 256-fold range up to the top dose, as a fraction; the more sensitive the line, the further below 1. An inferred top dose comes from the curve model; the source does not state it.
# Assays:
# Assay in all cases: Viability of human cancer cell lines after 72 h of drug (GDSC screen)
# QL-XII-47 = compound: C=CC(=O)N1CCc2ccc(-n3c(=O)ccc4cnc5ccc(-c6cnn(C)c6)cc5c43)cc21 [QL-XII-47]; conditions: top dose 10.24 µM; top dose inferred
# Description: (§1)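 Human cancer cell lines in 384-well plates, medium with 10% serum, drug for 72 h over a 256-fold dose range (nine 2-fold or five 4-fold steps up to the top dose). Adherent lines were fixed and stained with the nucleic acid dye Syto60, suspension lines read with resazurin; signal relative to control wells, capped at 0 and 100%. One two-parameter sigmoid per drug and line, fitted in a mixed model over all curves with the slope shared within a line.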
# KIN001-266 = compound: CCN1CCC(n2cc(CNc3cc(Cl)c4ncc(C#N)c(Nc5ccc(F)c(Cl)c5)c4c3)nn2)CC1 [KIN001-266]; conditions: top dose 20 µM; top dose inferred
# Description: as §1
# BAY 61-3606 = compound: COc1ccc(-c2cc3nccn3c(Nc3ncccc3C(N)=O)n2)cc1OC [BAY 61-3606]; conditions: top dose 8 µM; top dose inferred
# Description: as §1
# CCT007093 = compound: O=C1/C(=C/c2cccs2)CC/C1=C\c1cccs1 [CCT007093]; conditions: top dose 6.6 µM; top dose inferred
# Description: as §1
Cell Line,AUC (QL-XII-47),IC50 (QL-XII-47) [nM],AUC (KIN001-266),IC50 (KIN001-266) [µM],AUC (BAY 61-3606),IC50 (BAY 61-3606) [µM],AUC (CCT007093),IC50 (CCT007093) [µM]
"PANC-10-05 (pancreas, adherent)",0.624,1550,0.883,> 20,0.747,3.19,0.976,> 6.6
"PC-3 (prostate, adherent)",0.72,3130,0.667,4.06,0.983,> 8,0.98,> 6.6
"PC-3 [JPC-3] (lung adenocarcinoma, adherent)",0.505,664,0.815,15.8,0.928,> 8,0.954,> 6.6
"PC-14 (lung adenocarcinoma, adherent)",0.808,4630,0.811,9.24,0.936,> 8,0.987,> 6.6
"PCI-4B (head and neck, adherent)",0.51,680,0.877,18.4,0.765,2.78,0.948,> 6.6
"PCI-6A (head and neck, adherent)",0.67,1880,0.856,15.5,0.821,4.53,0.942,> 6.6
"PCI-15A (head and neck, adherent)",0.757,3560,0.987,> 20,0.873,7.8,0.953,> 6.6
"PCI-30 (head and neck, adherent)",0.962,> 10200,0.984,> 20,0.984,> 8,0.968,> 6.6
"PCI-38 (head and neck, adherent)",0.913,> 10200,0.871,19,0.906,> 8,0.906,> 6.6
"PE/CA-PJ15 (head and neck, adherent)",0.848,8620,0.941,> 20,0.985,> 8,0.967,> 6.6
"PF-382 (T-cell lymphoblastic leukaemia, suspension)",0.442,454,0.854,12.8,0.758,2.47,0.991,> 6.6
"PFSK-1 (medulloblastoma, adherent)",0.802,5390,0.945,> 20,0.824,5.17,0.986,> 6.6
"PL4 (pancreas, adherent)",0.904,> 10200,0.913,> 20,0.954,> 8,0.987,> 6.6
"PL18 (pancreas, adherent)",0.853,7930,0.879,> 20,0.952,> 8,0.982,> 6.6
"PSN1 (pancreas, adherent)",0.516,701,0.892,16.9,0.616,0.986,0.99,> 6.6
"QIMR-WIL (acute myeloid leukaemia, suspension)",0.38,302,0.884,> 20,0.537,0.627,0.985,> 6.6
"RC-K8 (B-cell lymphoma, suspension)",0.866,7240,0.964,> 20,0.918,> 8,0.988,> 6.6
"RCC10RGB (kidney, adherent)",0.746,6730,0.819,> 20,0.857,> 8,0.953,> 6.6
"RCM-1 (large intestine, adherent)",0.98,> 10200,0.98,> 20,0.879,> 8,0.91,> 6.6
"RD (rhabdomyosarcoma, adherent)",0.545,860,0.849,17.3,0.966,> 8,0.981,> 6.6
"REH (B-cell leukaemia, suspension)",0.484,582,0.85,14.3,0.754,2.6,0.984,> 6.6
"RERF-GC-1B (stomach, adherent)",0.791,5220,0.697,4.82,0.915,> 8,0.852,6.08
"RERF-LC-KJ (lung adenocarcinoma, adherent)",0.812,5680,0.976,> 20,0.866,7.46,0.955,> 6.6
"RERF-LC-MS (lung adenocarcinoma, adherent)",0.889,> 10200,0.977,> 20,0.979,> 8,0.959,> 6.6

Cell Line,AUC (QL-XII-47),IC50 (QL-XII-47) [nM],AUC (KIN001-266),IC50 (KIN001-266) [µM],AUC (BAY 61-3606),IC50 (BAY 61-3606) [µM],AUC (CCT007093),IC50 (CCT007093) [µM]
"RERF-LC-Sq1 (lung squamous cell carcinoma, adherent)",0.773,6030,0.912,> 20,0.945,> 8,0.945,> 6.6
"RF-48 (stomach, adherent)",0.585,1130,0.718,5.65,0.595,0.942,0.976,> 6.6
"RH-1 (rhabdomyosarcoma, adherent)",0.599,1140,0.794,7.57,0.827,3.85,0.988,> 6.6
"RH-41 (rhabdomyosarcoma, adherent)",0.912,> 10200,0.878,14.6,0.832,4,0.992,> 6.6
"RKN (ovary, adherent)",0.645,1650,0.965,> 20,0.894,> 8,0.984,> 6.6
"RKO (large intestine, adherent)",0.503,653,0.87,16.3,0.771,2.85,0.988,> 6.6
"RL (B-cell lymphoma, suspension)",0.738,2860,0.869,15.9,0.99,> 8,0.984,> 6.6
"RO82-W-1 (thyroid, adherent)",0.968,> 10200,0.892,> 20,0.87,> 8,0.966,> 6.6
"ROS-50 (B-cell leukaemia, suspension)",0.917,> 10200,0.791,11.9,0.884,> 8,0.944,> 6.6
"RPMI-2650 (head and neck, adherent)",0.701,2490,0.862,19.4,0.546,0.675,0.984,> 6.6
"RPMI-6666 (Hodgkin lymphoma, suspension)",0.49,597,0.802,12.2,0.656,1.49,0.972,> 6.6
"RPMI-7951 (melanoma, adherent)",0.42,390,0.876,18.8,0.796,3.62,0.987,> 6.6
"RPMI-8226 (myeloma, suspension)",0.134,56.7,0.874,15.2,0.943,> 8,0.987,> 6.6
"RPMI-8402 (T-cell lymphoblastic leukaemia, suspension)",0.42,402,0.772,6.54,0.719,1.85,0.991,> 6.6
"RPMI-8866 (chronic myeloid leukaemia, suspension)",0.852,7040,0.866,15.8,0.824,4.31,0.935,> 6.6
"RS4-11 (leukaemia, suspension)",0.597,1150,0.88,17.7,0.661,1.34,0.981,> 6.6
"RT4 (bladder, adherent)",0.611,1320,0.845,15.6,0.82,4.91,0.987,> 6.6
"RT-112 (bladder, adherent)",0.835,7470,0.937,> 20,0.945,> 8,0.98,> 6.6
"RVH-421 (melanoma, adherent)",0.776,5680,0.765,10,0.934,> 8,0.962,> 6.6
"RXF393 (kidney, adherent)",0.599,1320,0.797,14,0.794,5.41,0.918,> 6.6
"Raji (Burkitt lymphoma, suspension)",0.559,920,0.886,19.6,0.859,5.96,0.976,> 6.6
"Ramos-2G6-4C10 (Burkitt lymphoma, suspension)",0.639,1460,0.874,14.8,0.788,2.98,0.989,> 6.6
"SAS (head and neck, adherent)",0.475,543,0.891,> 20,0.93,> 8,0.974,> 6.6
